Laboratory results reported in article PMC4336329 (PLoS ONE, 2015).
Screen size: about 310,000 compounds; about 14,000 (4.5%) showed an effect of 50% or more. Effects have a minus sign here. The list shows a part of the results.

target: human ether-à-go-go-related gene (hERG) potassium channel (human, UniProt Q12809); assay: primary screen, population patch clamp on CHO cells stably expressing hERG
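Further: peak tail current of the secondary pulse compared with the same well before compound.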

Chain of human ether-à-go-go-related gene (hERG) potassium channel (Q12809 whole entry, looked up): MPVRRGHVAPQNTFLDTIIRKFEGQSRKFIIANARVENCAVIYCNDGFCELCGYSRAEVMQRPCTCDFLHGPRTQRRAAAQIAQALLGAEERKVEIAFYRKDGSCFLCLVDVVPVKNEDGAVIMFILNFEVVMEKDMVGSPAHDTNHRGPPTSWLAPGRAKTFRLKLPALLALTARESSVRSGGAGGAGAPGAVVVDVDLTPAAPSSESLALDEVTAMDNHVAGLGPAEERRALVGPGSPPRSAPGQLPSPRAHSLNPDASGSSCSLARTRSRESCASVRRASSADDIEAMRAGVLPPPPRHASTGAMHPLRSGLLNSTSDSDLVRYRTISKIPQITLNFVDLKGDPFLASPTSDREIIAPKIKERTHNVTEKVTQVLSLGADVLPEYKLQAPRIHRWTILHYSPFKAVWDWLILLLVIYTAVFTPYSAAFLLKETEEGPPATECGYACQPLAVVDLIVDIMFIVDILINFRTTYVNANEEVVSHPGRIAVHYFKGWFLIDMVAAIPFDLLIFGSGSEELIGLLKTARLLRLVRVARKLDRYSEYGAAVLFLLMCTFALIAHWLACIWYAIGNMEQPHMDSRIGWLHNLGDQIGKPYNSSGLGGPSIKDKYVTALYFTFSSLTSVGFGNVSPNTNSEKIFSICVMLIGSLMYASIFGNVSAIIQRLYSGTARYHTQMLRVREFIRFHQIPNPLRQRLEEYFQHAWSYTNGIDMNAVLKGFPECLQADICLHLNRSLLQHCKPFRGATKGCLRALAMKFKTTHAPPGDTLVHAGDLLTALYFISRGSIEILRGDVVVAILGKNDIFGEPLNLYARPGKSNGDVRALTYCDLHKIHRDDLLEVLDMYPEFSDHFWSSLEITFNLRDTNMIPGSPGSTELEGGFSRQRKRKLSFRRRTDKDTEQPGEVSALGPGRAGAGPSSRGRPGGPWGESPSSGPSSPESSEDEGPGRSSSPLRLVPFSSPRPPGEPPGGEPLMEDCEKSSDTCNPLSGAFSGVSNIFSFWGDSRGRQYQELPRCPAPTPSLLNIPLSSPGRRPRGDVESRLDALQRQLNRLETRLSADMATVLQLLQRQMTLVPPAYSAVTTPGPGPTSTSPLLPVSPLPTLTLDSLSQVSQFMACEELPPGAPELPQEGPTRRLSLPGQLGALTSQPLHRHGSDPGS

SMILES	hERG current change (%, negative = inhibition) at 10uM [%]
Cc1ccc(C)c(OCCC(=O)OCC(=O)NCc2ccccc2)c1	15.4
COCCNC(=O)C(c1cccs1)N(CCc1ccccc1)C(=O)Cn1nnc2ccccc21 (centres unmarked)	6.51
O=C(COc1cc2oc(=O)c3c(c2cc1Cl)CCC3)NCCN1CCOCC1	17
O=C(NCc1ccc(F)cc1)C1CCN(S(=O)(=O)N2CCCC2)CC1	0.41
CN1CCN(C(=O)C(N)Cc2ccccc2)CC1 (centres unmarked)	23.8
Cc1cccc(C)c1NC(=O)c1ccc2c(c1)CCN2S(C)(=O)=O	-8.92
O=C(Nc1nnc(Cc2ccccc2)s1)c1ccco1	1.96
O=C(CN1CCC(n2nnc3ccccc32)CC1)NCc1cccs1	-60.2
O=C(CCS(=O)(=O)c1ccccc1)Nc1ccc2c(c1)C(=O)NC2=O	4.57
Cc1ccc(S(=O)(=O)N2CCCC(C(=O)N3CCCc4ccccc43)C2)cc1 (centres unmarked)	15.1
COCCN(CC1CCCN(C2Cc3ccccc3C2)C1)C(=O)c1ccc(C(C)=O)cc1 (centres unmarked)	-78.6
C=CCN(c1ccc(C(=O)NCCCn2ccnc2)cc1)S(C)(=O)=O	12.3
CCOc1ncccc1C(=O)Nc1nnc(C2CC2)s1	5.61
COc1cccc(-c2nc(Cc3ccc(OC)c(OC)c3)no2)c1	0.706
CC1=Nc2cc(C(=O)O)ccc2Sc2ccc(C)cc21	53.5
CN1CCN(c2nc3ccccn3c(=O)c2C=O)CC1.Cl	16.2
CC(=O)Nc1ccc(NC(=O)COC(=O)c2c3c(nc4ccccc24)CCN(Cc2ccccc2)C3)cc1	-20
CCc1ccc(NC(=O)CSCc2nc(N)nc(Nc3ccccc3CC)n2)cc1	-4.74
CO/N=C/c1c(-c2ccc(Cl)cc2)nc2cc(C)ccn12	10.4
COc1ccc(/C=C/C(=O)NC(=S)N2C[C@H]3C[C@H](C2)c2cccc(=O)n2C3)cc1	-18.2
COc1ccc(OC)c(S(=O)(=O)Nc2ccc(O)c(Sc3ncn[nH]3)c2)c1	-5.38
O=C(CN1CCN(c2ccccc2)CC1)Nc1nnc(-c2ccccc2)s1	6.41
CC/C(=N\NS(C)(=O)=O)c1ccccc1	14.6

SMILES	hERG current change (%, negative = inhibition) at 10uM [%]
Cc1ccccc1C(=O)NCc1ccncc1	-7.31
O=C(CSc1nnc(CNC(=O)c2c(F)cccc2F)o1)NCCc1ccccc1	10.2
CCSc1nnc(NC(=O)/C=C/c2ccco2)s1	-2.02
O=C(CN(CC1CCCO1)C(=O)CCC(=O)Nc1nccs1)NCc1ccccc1 (centres unmarked)	4.32
O=C(CSc1nnnn1-c1ccc2c(c1)OCCO2)Nc1nc2c(s1)CCCC2	1.75
CCc1c(C(=O)NNC(=S)NC2CCCCC2)csc1C	16.3
C/C(CC(=O)Nc1ccc(C)c(Cl)c1)=N\NC(=O)Cc1ccccc1	1.45
Cc1cc(C(=O)N/N=C/c2c(C)[nH]n(-c3ccccc3)c2=O)n[nH]1	14.7
O=C(NCC1CCCO1)C(=O)N/N=C/c1cc(Cl)ccc1O (centres unmarked)	-2.19
CC(CCc1ccccc1)NC(=O)c1ccccc1F (centres unmarked)	-4.53
NNC(=O)c1sc2nc(N3CCOCC3)c3c(c2c1N)CCCC3	11
Cc1ccc(N(CCO)C(=S)Nc2ccccc2)cc1	19.9
Cc1ccc(CCNC(=O)c2cccc(N3CCCC3=O)c2)cc1	-7.86
O=C(Nc1ccc(F)cc1)Nc1ccc2c(c1)OCO2	12.6
N#CCCN1CCN(S(=O)(=O)c2cc(Cl)ccc2Cl)CC1	-12.3
CCN(CC(=O)NCc1cccs1)C(=O)CCCOc1ccccc1	-35.2
O=C(COC(=O)C1CC(=O)N(Cc2ccco2)C1)c1ccc(OC(=O)c2ccco2)cc1 (centres unmarked)	-3.5
CC(C)N1CCC(N2CCN(Cc3cc4c(cc3Cl)OCO4)CC2CCO)CC1 (centres unmarked)	-18.5
CN(C)C(=O)c1ccc(Cl)cc1[N+](=O)[O-]	27.1
CCC(=O)Nc1ccc(NC(=O)CN2CCCC(C)C2)c(Cl)c1 (centres unmarked)	0.527
CN(CC(=O)Nc1c(Cl)cccc1Cl)C(=O)C1CC(=O)N(Cc2ccccc2)C1 (centres unmarked)	21.8
C=CCOc1ccc2cccc(/C=N/NC(=O)c3cc4cc([N+](=O)[O-])ccc4s3)c2c1	15.9
COC(=O)/C(C#N)=C/c1c(Oc2cc(C)cc(C)c2)nc2c(C)cccn2c1=O	-11.2

SMILES	hERG current change (%, negative = inhibition) at 10uM [%]
CCOc1ccc(NC(=O)NCc2ccccn2)cc1	1.86
Cc1nc2ccc(S(=O)(=O)NCC(=O)N3CCCCC3)cc2s1	7.23
Nc1nc(SCC(=O)NCC2CCCO2)n[nH]1 (centres unmarked)	-8.37
COC(=O)c1ccc(NS(=O)(=O)c2ccc(Cl)cc2)o1	0.192
Cc1cccc(-n2ccnc2SCC(=O)Nc2nccs2)c1	-8.75
CCOC(=O)c1ccc(NC(=O)C2CCC(CNc3c(N4CCOCC4)c(=O)c3=O)CC2)cc1 (centres unmarked)	9.58
COc1ccc(-n2c(N)c(C(=O)NCc3ccco3)sc2=S)cc1	-3.38
O=c1c2c(nc3nc(Cc4ccccc4)[nH]n13)CCC2	8.83
CCCCC[C@H](O)/C=C/[C@@H]1[C@@H](C/C=C\CCCC(=O)OC)[C@@H](O)C[C@H]1O	2.11
Oc1ccc(C2NCc3ccccc3-n3cccc32)cc1Cl (centres unmarked)	-17.2
O=C(NCc1cccc(C(F)(F)F)c1)c1cccc(S(=O)(=O)NCc2ccccc2)c1	4.24
O=C(Cn1cccn1)N1CCCC(N2CCN(c3ccccc3F)CC2)C1 (centres unmarked)	8.87
COc1ccc(C(=O)Nc2ccc3[nH]ncc3c2)cc1OC	-13.5
Cc1ccnc(NC(=O)CCC(=O)N(CC(=O)NCc2ccccc2)c2ccc3c(c2)OCO3)c1	-3.85
CSc1cccc(NC(=O)c2nnn(Cc3ccccc3)c2N)c1	15.2
Cc1ccc(C(=O)NCC(=O)Nc2ccc(C)c(S(=O)(=O)Nc3ccc(Cl)cc3)c2)s1	13
Cc1cccc(N2C(=O)c3ccc(C(=O)Nc4ccccn4)cc3C2=O)c1	9.66
Cc1cc2c(Nc3ccccc3)ncnc2s1.Cl	4.58
CC(=O)c1ccc(NC(=O)CSc2nnc3ccc(-c4ccccn4)nn23)cc1	-10.5
CC1=C(C)CS(=O)N(S(=O)(=O)c2ccccc2)C1 (centres unmarked)	-16.3
CC(C)OC(=O)CN1CCN(S(=O)(=O)c2cc(Cl)ccc2Cl)CC1	-31.7
O=C1C=C(c2cccc(O)c2)C[C@@H](c2ccc(F)cc2)C1	6.37
O=C(O)/C=C\C(=O)Nc1ccc(OC(F)F)cc1	11.2

SMILES	hERG current change (%, negative = inhibition) at 10uM [%]
Cc1[nH]c2ccc(OC(F)(F)F)cc2c1CCN1C(=O)c2ccc(C(=O)O)cc2C1=O	36.3
CCN(CC)S(=O)(=O)c1ccc2oc(C(=O)NCCN3CCOCC3)c(C)c2c1	-5.3
O=C(COC(=O)C1CCC1)Nc1ccc(OC(F)F)cc1	11.3
O=C(COc1ccccc1)NCCS(=O)(=O)N1CCN(c2ccccc2)CC1	-3.18
CCOc1ccc(Nc2ccc(N3C(=O)CCC3=O)cc2[N+](=O)[O-])cc1	2.09
Cn1c(SCC(=O)Nc2ccc3c(c2)OCCO3)nnc1-c1ccco1	8.89
Cn1c2ccccc2c2nnc(N/N=C/c3ccc(O)cc3)nc21	-0.978
COc1ccc(-n2c(SC3CCOC3=O)nc3ccccc3c2=O)cc1OC (centres unmarked)	-4.64
Cc1cc(OCC(=O)NC2CC(C)(C)NC(C)(C)C2)c(C)cc1Br	-26.8
O=C(N1CCOCC1)N1CCN(C(c2ccccc2)c2ccccc2)CC1	12.8
Cc1ccc2cc3cc(C(=O)NCCCN4CC(C)CC(C)C4)oc3nc2c1 (centres unmarked)	-62.9
COc1ccccc1NC(=O)/C(=C\c1cccnc1)NC(=O)c1ccccc1	-65.5
CCN(Cc1ccccc1)S(=O)(=O)c1ccc2c(c1)NC(=O)CS2	-44.5
CCn1c(SCC(=O)N2CCCC2)nnc1-c1ccc(S(=O)(=O)N2CCCCCC2)cc1	-6.15
C=CCC1c2cccc(C(=O)O)c2C(=O)N1c1cccc(C)c1 (centres unmarked)	12.2
COc1ccc2c(c1O)[C@]13CCN(C)[C@H](C2)[C@@H]1CCC(=O)C3	-13.5
Cc1ccc(OCCCCn2cnc3ccccc32)c(C)c1.O=C(O)C(=O)O	-20.5
CSc1ccc(-c2cccc([N+](=O)[O-])c2)nn1	12.5
CC(=O)c1ccc(N2CCN(CC(=O)Nc3ccccc3N3CCOCC3)CC2)cc1	-7.49
O=C(NCCCNC(=O)c1ccc(-c2cc(Cl)ccc2Cl)o1)c1cnccn1	-39.1
